{
  "source": "patent US4927941A",
  "about": "“Fluorine-containing nitroazole derivatives and radiosensitizer comprising the same” (Yasunori Nishijima & Daikin Industries Ltd., priority 1987, dated 1990)",
  "key": {"[1]": {"test_system": "Chinese hamster V-79 cells", "assay": "Radiosensitization effect on cells (ER in vitro)", "assay_type": "cell-based", "settings": "hypoxic (nitrogen), X-ray 1.6 Gy/min"}, "[2]": {"test_system": "EMT-6 tumor cells", "assay": "Radiosensitization effect on tumor transplanted in animal (ER in vivo)", "set-up": "species or system Balb/c mouse", "settings": "intraperitoneal, X-ray 450 rad/min, 5 minutes"}},
  "note": "Where “and” joins values, the source holds several entries; their conditions need not be identical. Equal entries are not always repeated. The name of at least one read-out is uncertain.",
  "data": [
    {"smiles": "O=C(NCCO)C(F)(F)Cn1cnc([N+](=O)[O-])n1", "note": "[(3), 3-(3'-nitro-1',2',4'-triazol-1'-yl)-2,2-difluoropropionic acid hydroxyethylamide]", "values": [
      {"measurement": "ER in vitro", "setting": "[1]; 1.0 mM", "result": 1.55},
      {"measurement": "ER in vivo", "setting": "[2]; 100 mg/kg", "result": 1.26},
      {"measurement": "ER in vivo", "setting": "[2]; 200 mg/kg", "result": 1.10}
    ]},
    {"smiles": "CC1(C)OCC(COCC(F)Cn2cnc([N+](=O)[O-])n2)O1", "note": "(stereo not drawn) [(64), 1-(2'-fluoro-4'-oxo-6',7'-isopropylidenedioxyheptyl)-3-nitro-1,2,4-triazole]", "values": [
      {"measurement": "ER in vivo", "setting": "[2]; 100 mg/kg", "result": 1.42}
    ]},
    {"smiles": "O=[N+]([O-])c1ncn(CC=COCC(F)(F)F)n1", "note": "[(10), 1-[3'-(2\", 2\", 2\"-trifluoroethoxy)-2', 3'-propenyl]-3-nitro-1,2,4-triazole]", "values": [
      {"measurement": "ER in vitro", "setting": "[1]; 0.5 mM", "result": 1.20},
      {"measurement": "ER in vivo", "setting": "[2]; 100 mg/kg", "result": 1.05}
    ]},
    {"smiles": "O=[N+]([O-])c1ncn(CC(F)COCC(O)CO)n1", "note": "(stereo not drawn) [(65), 1-(2'-fluoro-4'-oxo-6',7'-dihydroxyheptyl)-3-nitro-1,2,4-triazole]", "values": [
      {"measurement": "ER in vivo", "setting": "[2]; 100 mg/kg", "result": 1.47}
    ]},
    {"smiles": "CC(O)CNC(=O)C(F)(F)Cn1cnc([N+](=O)[O-])n1", "note": "(stereo not drawn) [(60), 3-(3'-nitro-1', 2', 4'-triazol-1'-yl)-2,2-difluoropropionic acid isopropanolamide]", "values": [
      {"measurement": "ER in vivo", "setting": "[2]; 100 mg/kg", "result": 1.43}
    ]},
    {"smiles": "COC(=O)C(F)(F)Cn1ccnc1[N+](=O)[O-]", "note": "[(1'), methyl 3-(2'-nitroimidazol-1'-yl)-2,2-difluoropropionate]", "values": [
      {"measurement": "ER in vitro", "setting": "[1]; 1.0 mM", "result": 1.40}
    ]},
    {"smiles": "O=C(NCCO)C(F)(F)Cn1ccnc1[N+](=O)[O-]", "note": "[(3'), 3-(2'-nitroimidazol-1'-yl)-2,2-difluoropronionic acid hydroxyethylamide]", "values": [
      {"measurement": "ER in vitro", "setting": "[1]; 1.0 mM", "result": 1.74},
      {"measurement": "ER in vivo", "setting": "[2]; 100 mg/kg", "result": 1.58}
    ]},
    {"smiles": "COCCNC(=O)CC(n1cnc([N+](=O)[O-])n1)C(F)(F)F", "note": "(stereo not drawn) [(4)]", "values": [
      {"measurement": "ER in vitro", "setting": "[1]; 1.0 mM", "result": 1.62},
      {"measurement": "ER in vivo", "setting": "[2]; 100 mg/kg", "result": 1.2}
    ]},
    {"smiles": "O=C(NCCO)C(F)Cn1cnc([N+](=O)[O-])n1", "note": "(stereo not drawn) [(47), 3-(3'-nitro-1', 2', 4'-triazol-1'-yl)-2-fluoropropionic acid hydroxyethylamide]", "values": [
      {"measurement": "ER in vivo", "setting": "[2]; 100 mg/kg", "result": 1.35},
      {"measurement": "ER in vivo", "setting": "[2]; 200 mg/kg", "result": 1.25}
    ]},
    {"smiles": "COCCNCC(F)(F)Cn1cnc([N+](=O)[O-])n1", "note": "[(46), 3-(3'-nitro-1', 2', 4'-triazol-1'-yl)-2,2-difluoropropyl-methoxyethylamine]", "values": [
      {"measurement": "ER in vivo", "setting": "[2]; 200 mg/kg", "result": 1.20}
    ]},
    {"smiles": "COC(=O)C(F)(F)Cn1cnc([N+](=O)[O-])n1", "note": "[(1), methyl 3-(3'-nitro-1',2',4'-triazol-1'-yl)-2,2-difluoropropionate]", "values": [
      {"measurement": "ER in vitro", "setting": "[1]; 1.0 mM", "result": 1.28},
      {"measurement": "ER in vivo", "setting": "[2]; 100 mg/kg", "result": 1.0},
      {"measurement": "ER in vivo", "setting": "[2]; 200 mg/kg", "result": 1.0}
    ]},
    {"smiles": "COCCOCC(F)Cn1cnc([N+](=O)[O-])n1", "note": "(stereo not drawn) [(63), 1-[2'-fluoro-3'-(2\"-methoxyethoxy)-propyl]-3-nitro-1,2,4-triazole]", "values": [
      {"measurement": "ER in vivo", "setting": "[2]; 100 mg/kg", "result": 1.34}
    ]},
    {"smiles": "O=[N+]([O-])c1ncn(CC(O)COCC(F)(F)C(F)F)n1", "note": "(stereo not drawn) [(6), 1-(2'-hydroxy-3'-tetrafluoropropoxypropyl)-3-nitro-1,2,4-triazole]", "values": [
      {"measurement": "ER in vitro", "setting": "[1]; 0.5 mM", "result": 1.49},
      {"measurement": "ER in vivo", "setting": "[2]; 50 mg/kg", "result": 1.10},
      {"measurement": "ER in vivo", "setting": "[2]; 200 mg/kg", "result": 1.0}
    ]},
    {"smiles": "COCCNC(=O)C(F)Cn1cnc([N+](=O)[O-])n1", "note": "(stereo not drawn) [(38), 3-(3'-nitro-1', 2', 4'-triazol-1'-yl)-2-fluoropropionic acid methoxyethylamide]", "values": [
      {"measurement": "ER in vivo", "setting": "[2]; 100 mg/kg", "result": 1.19},
      {"measurement": "ER in vivo", "setting": "[2]; 200 mg/kg", "result": 1.18}
    ]},
    {"smiles": "NC(=O)C(F)(F)Cn1cnc([N+](=O)[O-])n1", "note": "[(43), 3-(3'-nitro-1',2', 4'-triazol-1'-yl)-2,2-difluoropropionamide]", "values": [
      {"measurement": "ER in vivo", "setting": "[2]; 200 mg/kg", "result": 1.62}
    ]},
    {"smiles": "COCCNC(=O)C(F)(F)Cn1cnc([N+](=O)[O-])n1", "note": "[(2), 3-(3'-nitro-1',2',4'-triazol-1'-yl)-2,2-difluoropropionic acid methoxyethylamide]", "values": [
      {"measurement": "ER in vitro", "setting": "[1]; 1.0 mM", "result": 1.78},
      {"measurement": "ER in vivo", "setting": "[2]; 50 mg/kg", "result": 1.49},
      {"measurement": "ER in vivo", "setting": "[2]; 200 mg/kg", "result": 1.57}
    ]},
    {"smiles": "CC(C)NC(=O)C(F)(F)Cn1cnc([N+](=O)[O-])n1", "note": "[(53), 3-(3'-nitro-1', 2', 4'-triazol-1'-yl)-2,2-difluoropropionic acid isopropylamide]", "values": [
      {"measurement": "ER in vivo", "setting": "[2]; 200 mg/kg", "result": 1.05}
    ]},
    {"smiles": "O=[N+]([O-])c1ncn(CC(O)CF)n1", "note": "(stereo not drawn) [(13), 1-(3'-fluoro-2'-hydroxypropyl)-3-nitro-1,2,4-triazole]", "values": [
      {"measurement": "ER in vitro", "setting": "[1]; 1.0 mM", "result": 1.73},
      {"measurement": "ER in vivo", "setting": "[2]; 50 mg/kg", "result": 1.37},
      {"measurement": "ER in vivo", "setting": "[2]; 80 mg/kg", "result": 1.45}
    ]},
    {"smiles": "COCC(F)Cn1cnc([N+](=O)[O-])n1", "note": "(stereo not drawn) [(7), 1-(2'-fluoro-3'-methoxypropyl)-3-nitro-1,2,4-triazole]", "values": [
      {"measurement": "ER in vitro", "setting": "[1]; 1.0 mM", "result": 1.73},
      {"measurement": "ER in vivo", "setting": "[2]; 200 mg/kg", "result": 1.42}
    ]},
    {"smiles": "CC(=O)OCC(F)Cn1cnc([N+](=O)[O-])n1", "note": "(stereo not drawn) [(8), 1-(2'-fluoro-3'-acetoxypropyl)-3-nitro-1,2,4-triazole]", "values": [
      {"measurement": "ER in vitro", "setting": "[1]; 1.0 mM", "result": 1.97},
      {"measurement": "ER in vivo", "setting": "[2]; 100 mg/kg", "result": 1.36},
      {"measurement": "ER in vivo", "setting": "[2]; 200 mg/kg", "result": 1.67}
    ]},
    {"smiles": "NCC(F)(F)Cn1cnc([N+](=O)[O-])n1", "note": "[(39), 3-(3'-nitro-1', 2', 4'-triazol-1'-yl)-2,2-difluoropropylamine]", "values": [
      {"measurement": "ER in vivo", "setting": "[2]; 200 mg/kg", "result": 1.28}
    ]},
    {"smiles": "O=[N+]([O-])c1nccn1CC(O)CF", "note": "(stereo not drawn) [Comparative (b), reference compound]", "values": [
      {"measurement": "ER in vivo", "setting": "[2]; 200 mg/kg", "result": "1.50 and 1.78"}
    ]},
    {"smiles": "COCCNC(=O)C(F)(F)Cn1ccnc1[N+](=O)[O-]", "note": "[(2'), 3-(2'-nitroimidazol-1'-yl)-2,2-difluoropropionic acid methoxyethylamide]", "values": [
      {"measurement": "ER in vitro", "setting": "[1]; 1.0 mM", "result": 1.61},
      {"measurement": "ER in vivo", "setting": "[2]; 100 mg/kg", "result": 1.30}
    ]},
    {"smiles": "O=[N+]([O-])c1ncn(C(F)(F)C(F)F)n1", "note": "[(12), 1-(1', 2', 2', 2'-tetrafluoroethyl)-3-nitro-1,2,4-triazole]", "values": [
      {"measurement": "ER in vitro", "setting": "[1]; 1.0 mM", "result": 1.93},
      {"measurement": "ER in vivo", "setting": "[2]; 100 mg/kg", "result": 1.10}
    ]},
    {"smiles": "O=[N+]([O-])c1ncn(CC(F)CO)n1", "note": "(stereo not drawn) [(9), 1-(2'-fluoro-3'-hydroxypropyl)-3-nitro-1,2,4-triazole]", "values": [
      {"measurement": "ER in vitro", "setting": "[1]; 1.0 mM", "result": 1.64},
      {"measurement": "ER in vivo", "setting": "[2]; 100 mg/kg", "result": 1.48}
    ]},
    {"smiles": "CC(=O)NCC(F)(F)Cn1cnc([N+](=O)[O-])n1", "note": "[(40), 3-(3'-nitro-1', 2', 4'-triazol-1'-yl)-2,2-difluoropropyl-acetamide]", "values": [
      {"measurement": "ER in vivo", "setting": "[2]; 200 mg/kg", "result": 1.46}
    ]},
    {"smiles": "NC(=O)CCNC(=O)C(F)(F)Cn1cnc([N+](=O)[O-])n1", "note": "[(62), 1-(3'-nitro-1',2',4'-triazol-1'-yl)-2,2-difluoropropionic acid 3-alanylamide]", "values": [
      {"measurement": "ER in vivo", "setting": "[2]; 100 mg/kg", "result": 1.43}
    ]},
    {"smiles": "O=[N+]([O-])c1ncn(CC(F)(F)CO)n1", "note": "[(25), 1-(2', 2'-difluorohydroxypropyl)-3-nitro-1,2,4-triazole]", "values": [
      {"measurement": "ER in vivo", "setting": "[2]; 100 mg/kg", "result": 1.48},
      {"measurement": "ER in vivo", "setting": "[2]; 200 mg/kg", "result": 1.57},
      {"measurement": "ER in vivo", "setting": "[2]; 400 mg/kg", "result": 1.55}
    ]}
  ]
}
